# Measurements from the supplement of paper PMC8728848.
# The other results are listed elsewhere or left out.
# Key:
# Assay in all cases: glycan array binding signal (z-score within array); higher = stronger binding
# Conditions in all cases: glycan notation: IUPAC condensed, linker removed
# Glc(b1-4)Glc = biological target: Glc(b1-4)Glc
# Method in brief: (§1)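 The binding signal is a Z-score computed within each array. Data were drawn from 3228 arrays in the Consortium for Functional Glycomics database, restricted to those with a known protein sequence. Scores were averaged over arrays of the same protein sequence at different concentrations or buffers, and over linkers, and negative values can be taken as non-binding.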
# Glc(b1-6)Glc = biological target: Glc(b1-6)Glc
# Method in brief: as §1
# GlcA(b1-3)Gal = biological target: GlcA(b1-3)Gal
# Method in brief: as §1
# GlcA(b1-3)GlcNAc = biological target: GlcA(b1-3)GlcNAc
# Method in brief: as §1
# GlcA(b1-6)Gal = biological target: GlcA(b1-6)Gal
# Method in brief: as §1
# [1] = biological target: GlcA3S(b1-3)Gal(b1-4)GlcNAc(b1-2)Man
# Method in brief: as §1
# [2] = biological target: GlcA3S(b1-3)Gal(b1-4)GlcNAc(b1-3)Gal(b1-4)Glc
# Method in brief: as §1
# [3] = biological target: GlcNAc(a1-3)Gal(b1-4)GlcNAc
# Method in brief: as §1
# [4] = biological target: GlcNAc(a1-4)Gal(b1-3)GlcNAc
# Method in brief: as §1
# [5] = biological target: GlcNAc(a1-4)Gal(b1-4)GalNAc
# Method in brief: as §1
# [6] = biological target: GlcNAc(a1-4)Gal(b1-4)GlcNAc
# Method in brief: as §1
# [7] = biological target: GlcNAc(a1-4)Gal(b1-4)GlcNAc(b1-3)Gal(b1-4)Glc
# Method in brief: as §1
# [8] = biological target: GlcNAc(a1-4)Gal(b1-4)GlcNAc(b1-3)Gal(b1-4)GlcNAc
# Method in brief: as §1
# [9] = biological target: GlcNAc(a1-4)Gal(b1-4)GlcNAc(b1-3)Gal(b1-4)GlcNAc(b1-3)Gal(b1-4)GlcNAc
# Method in brief: as §1
# [10] = biological target: GlcNAc(a1-4)Gal(b1-4)GlcNAc(b1-3)Gal(b1-4)[Fuc(a1-3)]GlcNAc(b1-3)Gal(b1-4)[Fuc(a1-3)]GlcNAc
# Method in brief: as §1
# [11] = biological target: GlcNAc(a1-6)Gal(b1-4)GlcNAc
# Method in brief: as §1
# [12] = biological target: GlcNAc(b1-2)Gal(b1-3)GalNAc
# Method in brief: as §1
# [13] = biological target: GlcNAc(b1-2)Man(a1-3)[GlcNAc(b1-2)Man(a1-6)]Man(b1-4)GlcNAc(b1-4)GlcNAc
# Method in brief: as §1
# [14] = biological target: GlcNAc(b1-2)Man(a1-3)[GlcNAc(b1-2)Man(a1-6)]Man(b1-4)GlcNAc(b1-4)[Fuc(a1-6)]GlcNAc
# Method in brief: as §1
# [15] = biological target: GlcNAc(b1-2)Man(a1-3)[GlcNAc(b1-4)][GlcNAc(b1-2)Man(a1-6)]Man(b1-4)GlcNAc(b1-4)GlcNAc
# Method in brief: as §1
# [16] = biological target: GlcNAc(b1-2)Man(a1-3)[GlcNAc(b1-4)][GlcNAc(b1-2)Man(a1-6)]Man(b1-4)GlcNAc(b1-4)[Fuc(a1-6)]GlcNAc
# Method in brief: as §1
# [17] = biological target: GlcNAc(b1-2)[GlcNAc(b1-4)]Man(a1-3)[GlcNAc(b1-2)Man(a1-6)]Man(b1-4)GlcNAc(b1-4)GlcNAc
# Method in brief: as §1
# [18] = biological target: GlcNAc(b1-2)[GlcNAc(b1-4)]Man(a1-3)[GlcNAc(b1-4)][GlcNAc(b1-2)Man(a1-6)]Man(b1-4)GlcNAc(b1-4)GlcNAc
# Method in brief: as §1
# [19] = biological target: GlcNAc(b1-2)[GlcNAc(b1-4)]Man(a1-3)[GlcNAc(b1-4)][GlcNAc(b1-2)[GlcNAc(b1-6)]Man(a1-6)]Man(b1-4)GlcNAc(b1-4)GlcNAc
# Method in brief: as §1
# [20] = biological target: GlcNAc(b1-2)[GlcNAc(b1-4)]Man(a1-3)[GlcNAc(b1-4)][GlcNAc(b1-2)[GlcNAc(b1-6)]Man(a1-6)]Man(b1-4)GlcNAc(b1-4)[Fuc(a1-6)]GlcNAc
# Method in brief: as §1
# [21] = biological target: GlcNAc(b1-2)[GlcNAc(b1-6)]Man(a1-6)[GlcNAc(b1-2)Man(a1-3)]Man(b1-4)GlcNAc(b1-4)GlcNAc
# Method in brief: as §1
# [22] = biological target: GlcNAc(b1-2)[GlcNAc(b1-6)]Man(a1-6)[GlcNAc(b1-2)Man(a1-3)]Man(b1-4)GlcNAc(b1-4)[Fuc(a1-6)]GlcNAc
# Method in brief: as §1
# [23] = biological target: GlcNAc(b1-2)[GlcNAc(b1-6)]Man(a1-6)[GlcNAc(b1-4)][GlcNAc(b1-2)Man(a1-3)]Man(b1-4)GlcNAc(b1-4)GlcNAc
# Method in brief: as §1
# GlcNAc(b1-3)Fuc = biological target: GlcNAc(b1-3)Fuc
# Method in brief: as §1
# GlcNAc(b1-3)Gal = biological target: GlcNAc(b1-3)Gal
# Method in brief: as §1
# [24] = biological target: GlcNAc(b1-3)Gal(b1-3)GalNAc
# Method in brief: as §1
# GlcNAc(b1-3)Gal(b1-4)Glc = biological target: GlcNAc(b1-3)Gal(b1-4)Glc
# Method in brief: as §1
# [25] = biological target: GlcNAc(b1-3)Gal(b1-4)GlcNAc
# Method in brief: as §1
# [26] = biological target: GlcNAc(b1-3)Gal(b1-4)GlcNAc(b1-2)Man(a1-3)[GlcNAc(b1-3)Gal(b1-4)GlcNAc(b1-2)Man(a1-6)]Man(b1-4)GlcNAc(b1-4)GlcNAc
# Method in brief: as §1
# [27] = biological target: GlcNAc(b1-3)Gal(b1-4)GlcNAc(b1-2)Man(a1-3)[GlcNAc(b1-3)Gal(b1-4)GlcNAc(b1-2)Man(a1-6)]Man(b1-4)GlcNAc(b1-4)[Fuc(a1-6)]GlcNAc
# Method in brief: as §1
# [28] = biological target: GlcNAc(b1-3)Gal(b1-4)GlcNAc(b1-2)[GlcNAc(b1-3)Gal(b1-4)GlcNAc(b1-6)]Man(a1-6)[GlcNAc(b1-3)Gal(b1-4)GlcNAc(b1-2)Man(a1-3)]Man(b1-4)GlcNAc(b1-4)GlcNAc
# Method in brief: as §1
# [29] = biological target: GlcNAc(b1-3)Gal(b1-4)GlcNAc(b1-3)Gal(b1-4)GlcNAc
# Method in brief: as §1
binder,measurement,setting,value
SP16664B-bot-474-25-474 (Bacteroides ovatus) (protein) CEEDIEIGNKIDESSYLASTQLSGLLLDENTNKNSSVIELRNNEYSTNVVFRLSKLPQKGVDVQIAVEESYAAIYNTIHETDFEVFPAANVKIANNGTFVLAPDDKVTPSVKVTLTAFDGMEEDKTYIVPLTVTSSTEGVTFTETSKHMVLLVQDYRNKPNTNKGEDAVQTVLYFEVNDTNPLNALEFLTESGKYFFDHIVLFAANINWDPEKQRVYLANNENVQFLLDNNDKYLQPLRKAGMKIIISILGNHDEAGVAQLSDMGAREFARELAAYCRAYNLDGVAFDDEYSNSPDLSNPWLASPSAYAGSRLMYECKAVMPEKIVSLYNLGNMYSSSLQVIDGIEPGQYCDYAVADYGGAAGPGTGMTLKQCAGMSIELRRGSGNSSESTARSRKEAGYGYYMFFALDPSLYGSQVYRCQSVCKGLYDETLVYPSYYYKKNSTEREAIN,glycan array binding signal (z-score),Glc(b1-4)Glc,0.781
same,glycan array binding signal (z-score),Glc(b1-6)Glc,-0.432
same,glycan array binding signal (z-score),GlcA(b1-3)Gal,-0.073
same,glycan array binding signal (z-score),GlcA(b1-3)GlcNAc,0.148
same,glycan array binding signal (z-score),GlcA(b1-6)Gal,-0.616
same,glycan array binding signal (z-score),[1],-0.295
same,glycan array binding signal (z-score),[2],0.34
same,glycan array binding signal (z-score),[3],-0.321
same,glycan array binding signal (z-score),[4],-0.21
same,glycan array binding signal (z-score),[5],0.293
same,glycan array binding signal (z-score),[6],-0.527
same,glycan array binding signal (z-score),[7],-0.223
same,glycan array binding signal (z-score),[8],0.233
same,glycan array binding signal (z-score),[9],-0.159
same,glycan array binding signal (z-score),[10],4.58
same,glycan array binding signal (z-score),[11],-0.412
same,glycan array binding signal (z-score),[12],-0.331
same,glycan array binding signal (z-score),[13],-0.424
same,glycan array binding signal (z-score),[14],-0.542
same,glycan array binding signal (z-score),[15],-0.294
same,glycan array binding signal (z-score),[16],-0.382
same,glycan array binding signal (z-score),[17],0.16
same,glycan array binding signal (z-score),[18],-0.088
same,glycan array binding signal (z-score),[19],-0.186
same,glycan array binding signal (z-score),[20],-0.363
same,glycan array binding signal (z-score),[21],-0.171
same,glycan array binding signal (z-score),[22],-0.117
same,glycan array binding signal (z-score),[23],-0.293
same,glycan array binding signal (z-score),GlcNAc(b1-3)Fuc,-0.38
same,glycan array binding signal (z-score),GlcNAc(b1-3)Gal,0.092
same,glycan array binding signal (z-score),[24],0.854
same,glycan array binding signal (z-score),GlcNAc(b1-3)Gal(b1-4)Glc,-0.509
same,glycan array binding signal (z-score),[25],-0.365
same,glycan array binding signal (z-score),[26],0.008
same,glycan array binding signal (z-score),[27],0.352
same,glycan array binding signal (z-score),[28],0.178
same,glycan array binding signal (z-score),[29],0.239
